In all, about 39,000 compounds went through this assay and about 220 (0.56%) showed activity. The list shows a part of the results.
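Note: static incubation at 37 °C against the wild-type strain, values averaged over two biological replicates.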

The assay has as its system Escherichia coli K-12 BW25113. The assay is described as follows: relative growth (OD600 normalised to plate interquartile mean) (fraction); higher = less growth inhibition, active = 0.2 or less. The settings on record: 50 µM; LB; incubation time: overnight (16-24 h).
Turning to `C[C@H](CO)N1C[C@H](C)[C@@H](CN(C)Cc2ccc(Oc3ccccc3)cc2)Oc2c(NC(=O)c3ccc(-c4nccs4)cc3)cccc2C1=O`, the relative growth was inactive: 1.02.
With `COCC#Cc1ccc([C@H]2[C@@H](CO)N3C(=O)CN(C(=O)CN4CCOCC4)C[C@@H]23)cc1` the figure was inactive: 1.01; with `C[C@H]1CN([C@@H](C)CO)C(=O)Cc2cc(NS(=O)(=O)c3cccs3)ccc2O[C@H]1CN(C)Cc1ccc(-c2ccccc2)cc1`, inactive: 1.01; with `Cc1ccc(S(=O)(=O)Nc2ccc3c(c2)C(=O)N([C@@H](C)CO)C[C@H](C)[C@@H](CN(C)C(=O)Nc2ccc(C(F)(F)F)cc2)OCCCC[C@@H](C)O3)cc1`, inactive: 0.976.
Consider `CCS(=O)(=O)Nc1ccc2c(c1)C(=O)N(C)[C@@H]1CC[C@@H](CC(=O)NCc3ccccc3F)O[C@@H]1CO2`, for which the relative growth is inactive: 1.02.
Take `C[C@@H]1CN([C@H](C)CO)C(=O)c2cccc(NS(C)(=O)=O)c2O[C@H]1CN(C)S(=O)(=O)c1cccs1`: the relative growth is inactive: 1.
On to `C[C@@H]1CN([C@@H](C)CO)C(=O)c2cc(NS(=O)(=O)c3ccc(F)cc3)ccc2O[C@@H]1CN(C)Cc1ccncc1`, for which the relative growth is inactive: 1.
The value for `Cc1ccc(S[C@]2(C(=O)O)CC(=O)N(C3Cc4ccccc4C3)[C@@H]2c2ccc(CO)cc2I)cc1` was inactive: 1.03; that for `Cc1ccc(=O)n(CC(=O)O)n1` was inactive: 1.03; that for `C[C@H](CO)N1C[C@H](C)[C@H](CN(C)C(=O)C2CCCCC2)Oc2cc(C#CCN(C)C)ccc2S1(=O)=O` was inactive: 1.01.
With `C[C@H]1CN([C@@H](C)CO)C(=O)c2cccc(NC(=O)c3cnccn3)c2O[C@H]1CN(C)Cc1ccccc1` the figure was inactive: 1.02.
Take `C[C@@H]1CN([C@H](C)CO)C(=O)CCCn2nncc2CO[C@@H]1CN(C)C(=O)Nc1ccc(N2CCN(C)CC2)cc1`: the relative growth was inactive: 1.02.
With `C[C@@H]1CN([C@H](C)CO)C(=O)Cc2cc(NC(=O)CCC(F)(F)F)ccc2O[C@H]1CN(C)Cc1ccc(C(F)(F)F)cc1` the figure was inactive: 1.07; with `COc1ccc([Si](C)(C)[C@@H]2[C@@H](CCn3cc(CCOC(=O)NCCCCCC(=O)NO)nn3)O[C@]3(C(=O)N(Cc4ccc(I)cc4)c4ccccc43)[C@H]2C)cc1`, inactive: 1.03; with `C[C@@H]1CN([C@@H](C)CO)C(=O)c2cc(NS(=O)(=O)c3cccs3)ccc2O[C@H]1CN(C)Cc1ccc(-c2ccccc2)cc1`, inactive: 0.984.
With `CC(C)NC(=O)N(C)C[C@@H]1Oc2ccc(NC(=O)Cn3cnnn3)cc2CC(=O)N([C@H](C)CO)C[C@@H]1C` the figure was inactive: 1.01.
With `CCC(=O)N[C@@H]1C=C[C@@H](CC(=O)OC)O[C@H]1CO` the figure was inactive: 1.01; with `C[C@H]1CN([C@@H](C)CO)C(=O)c2cccc(NC(=O)c3ccc(-c4nccs4)cc3)c2O[C@H]1CN(C)C(=O)NC1CCCCC1`, inactive: 0.993.
As to `O=C(CCO)c1ccc(O)cc1`, the relative growth is inactive: 1.03.
For the molecule `Cc1ccc(S(=O)(=O)N(C)C[C@H]2Oc3ccc(NS(=O)(=O)c4cn(C)cn4)cc3CC(=O)N([C@H](C)CO)C[C@H]2C)cc1`, the relative growth is inactive: 0.996.
The value for `C[C@@H]1CN([C@@H](C)CO)C(=O)c2cc(NC(=O)Nc3ccc4c(c3)OCO4)ccc2O[C@@H]1CN(C)S(=O)(=O)c1cn(C)cn1` was inactive: 1.03; that for `CCC(=O)OCC(=O)C1(OC(=O)CC)C(C)CC2C3CCC4=CC(=O)C=CC4(C)C3(F)C(O)CC21C` (configuration not stated) was inactive: 0.832; that for `COc1ccc(S(=O)(=O)Nc2cccc3c2O[C@@H](CN(C)C(=O)Nc2c(C)noc2C)[C@@H](C)CN([C@H](C)CO)C3=O)cc1` was inactive: 0.995.
With `C[C@H]1CN([C@@H](C)CO)C(=O)c2cc(-c3ccncc3)cnc2O[C@H]1CN(C)S(=O)(=O)c1ccccc1`, the relative growth was inactive: 1.01.
With `Cc1ccc(S(=O)(=O)Nc2ccc3c(c2)C(=O)N([C@H](C)CO)C[C@@H](C)[C@H](CN(C)S(=O)(=O)c2cn(C)cn2)O3)cc1` the figure was inactive: 1.01; with `Cn1ccc(=O)[nH]c1=O`, inactive: 0.978; with `CC(C)=Cc1ccc(C#N)c(=S)[nH]1`, inactive: 0.88.
With `Cc1ccc(S(=O)(=O)Nc2ccc3c(c2)CC(=O)N([C@H](C)CO)C[C@@H](C)[C@H](CN(C)Cc2ccncc2)O3)cc1` the figure was inactive: 0.996; with `C[C@@H]1CCCCO[C@@H](CN(C)Cc2ccccc2)[C@@H](C)CN([C@@H](C)CO)C(=O)c2cc(NC(=O)c3ccncc3)ccc2O1`, inactive: 1.02.
In the case of `CC(C)C#Cc1ccc2c(c1)O[C@H](CN(C)C(=O)Cc1ccccn1)[C@H](C)CN([C@H](C)CO)S2(=O)=O`, the relative growth is inactive: 1.02.
For `C[C@H](CO)N1C[C@H](C)[C@@H](CN(C)S(=O)(=O)c2cccs2)OCCCC[C@H](C)Oc2ccc(NC(=O)CCC(F)(F)F)cc2C1=O`, the relative growth is inactive: 0.971.
On to `C[C@@H]1CN([C@@H](C)CO)C(=O)CCCn2nncc2CO[C@@H]1CN(C)C(=O)Nc1ccccc1C(F)(F)F`, for which the relative growth is inactive: 1.02.
As to `C[C@@H]1CCCCO[C@H](CN(C)C(=O)NC2CCCCC2)[C@H](C)CN([C@@H](C)CO)C(=O)c2cc(NC(=O)CCC(F)(F)F)ccc2O1`, the relative growth is inactive: 0.971.
With `Cc1cc(C(=O)Nc2cccc3c2O[C@@H](CN(C)Cc2ccc4c(c2)OCO4)[C@H](C)CN([C@@H](C)CO)C3=O)n(C)n1` the figure was inactive: 1; with `O=C(c1cnccn1)N1CCC2(CCCN2)CC1`, inactive: 0.994.
As to `C[C@H](CO)N1C[C@H](C)[C@H](CN(C)S(=O)(=O)c2ccc(Cl)cc2)Oc2ccc(NS(=O)(=O)c3cn(C)cn3)cc2CC1=O`, the relative growth is inactive: 1.03.
Consider `C[C@@H]1CCCCO[C@@H](CN(C)Cc2ccncc2)[C@@H](C)CN([C@H](C)CO)C(=O)c2cc(NC(=O)c3ccccc3)ccc2O1`, for which the relative growth is inactive: 0.905.
With `CC(C)(CO)NC(=S)NC[C@H]1CCCO1` the figure was inactive: 1; with `COc1ccc(S(=O)(=O)Nc2cccc3c2O[C@@H](CN(C)S(=O)(=O)c2ccc(OC)cc2)[C@H](C)CN([C@H](C)CO)C3=O)cc1`, inactive: 1.04.
With `CCS(=O)(=O)N1[C@H](CO)[C@H](c2ccccc2)C12CN(C(=O)CN(C)C)C2` the figure was inactive: 0.975; with `CS(=O)(=O)N1CC[C@@H]2OCCN(C(=O)c3cccnc3)[C@@H]2C1`, inactive: 0.979.
Regarding `CC(C)NC(=O)Nc1cccc2c1O[C@H](CN(C)C(=O)Nc1ccc3c(c1)OCO3)[C@@H](C)CN([C@@H](C)CO)C2=O`, the relative growth is inactive: 0.996.
The value for `CS(=O)(=O)N1[C@@H]2Cn3c(ccc(-c4ccccc4)c3=O)[C@H]1[C@@H](C(=O)NCC1CC1)[C@@H]2CO` was inactive: 0.991; that for `C[C@H](CO)N1C[C@H](C)[C@@H](CN(C)C(=O)Cc2ccccc2)OCCCC[C@H](C)Oc2ccc(NC(=O)Cc3ccccc3)cc2C1=O` was inactive: 0.993; that for `CC/C(=C\c1ccccc1)C(=O)O` was inactive: 0.983.
With `CC(C)NC(=O)Nc1cccc2c1O[C@@H](CN(C)S(=O)(=O)c1ccc(F)cc1)[C@H](C)CN([C@@H](C)CO)C2=O` the figure was inactive: 1.01.
The value for `C[C@@H]1CN([C@H](C)CO)C(=O)Cc2cc(NC(=O)CCN3CCOCC3)ccc2O[C@H]1CN(C)CC1CCCCC1` was inactive: 0.949.
Take `COc1ccc(NC(=O)N(C)C[C@H]2OCc3cn(nn3)CCCC(=O)N([C@H](C)CO)C[C@H]2C)c(OC)c1`: the relative growth is inactive: 0.995.
As to `C[C@@H]1CCCCO[C@@H](CN(C)Cc2ccc(Cl)c(Cl)c2)[C@H](C)CN([C@H](C)CO)C(=O)c2cc(NC(=O)Nc3ccc(C(F)(F)F)cc3)ccc2O1`, the relative growth was inactive: 1.01.
With `C[C@@H]1CN([C@@H](C)CO)C(=O)Cc2cc(NS(=O)(=O)c3cn(C)cn3)ccc2O[C@H]1CN(C)S(=O)(=O)c1cccs1` the figure was inactive: 0.986; with `C[C@@H]1CCCCO[C@H](CN(C)C(=O)c2ccccc2)[C@H](C)CN([C@@H](C)CO)C(=O)c2cc(NC(=O)CCC(F)(F)F)ccc2O1`, inactive: 0.999.
On to `OC[C@@H]1CCCCN1`, for which the relative growth is inactive: 0.985.
With `C[C@@H]1CN([C@@H](C)CO)C(=O)c2cccc(NS(=O)(=O)c3cccs3)c2O[C@@H]1CN(C)Cc1ccc(Cl)c(Cl)c1` the figure was inactive: 1.01.
The value for `CNC(=O)C[C@H]1CC[C@@H]2[C@H](COc3ccc(NC(=O)c4ccc(C(F)(F)F)cc4)cc3C(=O)N2C)O1` was inactive: 0.965; that for `CN(C)CC(=O)N[C@H]1CC[C@@H](CCNS(=O)(=O)c2ccccc2)O[C@H]1CO` was inactive: 1.01.
For `Cc1ccc(S(=O)(=O)N(C)C[C@@H]2Oc3ncc(C#CC4(O)CCCC4)cc3C(=O)N([C@@H](C)CO)C[C@@H]2C)cc1`, the relative growth was inactive: 1.02.
`C[N+]1(C)C2CCC1CC(OC(=O)C(O)c1ccccc1)C2.[Br-]` (configuration not stated): the relative growth is inactive: 0.924.
With `C[C@@H]1CN([C@H](C)CO)C(=O)c2cc(NC(=O)Nc3cccc4ccccc34)ccc2O[C@@H](C)CCCCO[C@H]1CN(C)S(C)(=O)=O` the figure was inactive: 0.99.
The value for `C[C@@H]1CCCCO[C@H](CN(C)CC2CC2)[C@H](C)CN([C@@H](C)CO)C(=O)c2cc(NC(=O)NC3CCCCC3)ccc2O1` was inactive: 1.01.
With `Cc1ccc(S(=O)(=O)N(C)C[C@@H]2OCCCC[C@H](C)Oc3ccc(NC(=O)Nc4ccccc4)cc3C(=O)N([C@H](C)CO)C[C@@H]2C)cc1`, the relative growth was inactive: 1.05.
The value for `Cc1ccc(S(=O)(=O)N(C)C[C@H]2Oc3c(NC(=O)C4CCOCC4)cccc3C(=O)N([C@@H](C)CO)C[C@H]2C)cc1` was inactive: 1.02.
The value for `Cc1ccc(S(=O)(=O)Nc2ccc3c(c2)C(=O)N([C@@H](C)CO)C[C@@H](C)[C@@H](CN(C)Cc2ccccc2)OCCCC[C@@H](C)O3)cc1` was inactive: 0.995.

The record behind these values is the supplement of paper PMC9446081.
